Reference: PMC9911399, “Two distinct binding modes provide the RNA-binding protein RbFox with extraordinary sequence specificity”
Residue numbers refer to the chain shown, from its start. The list shows a part of the results.

T1: RBFOX1 RRM (Homo sapiens, UniProt Q9NWB1 109-208)
T1 sequence: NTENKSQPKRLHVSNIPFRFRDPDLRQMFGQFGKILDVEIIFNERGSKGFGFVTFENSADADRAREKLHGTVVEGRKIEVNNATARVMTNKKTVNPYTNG

B1: CCUAUAA (DNA:RNA)
RNA: GGGAGACCGGAAUUCAGAUUGUCCCCUAUAAUUAAAUCCCGUCGUAGCCACCA
DNA 1: CAATCTGAATTCCGGTCTCCC
DNA 2: TGGTGGCTACGACGGGATT
B2: UACUGAG (DNA:RNA)
RNA: B1 RNA with C25U, C26A, U27C, A28U, U29G, A31G
DNA 1: CAATCTGAATTCCGGTCTCCC
DNA 2: TGGTGGCTACGACGGGATT
B3: CCAUAUU (DNA:RNA)
RNA: B1 RNA with U27A, A28U, U29A, A30U, A31U
DNA 1: CAATCTGAATTCCGGTCTCCC
DNA 2: TGGTGGCTACGACGGGATT
B4: GAUGGUC (DNA:RNA)
RNA: B1 RNA with C25G, C26A, A28G, U29G, A30U, A31C
DNA 1: CAATCTGAATTCCGGTCTCCC
DNA 2: TGGTGGCTACGACGGGATT
B5: AGUGGAC (DNA:RNA)
RNA: B1 RNA with C25A, C26G, A28G, U29G, A31C
DNA 1: CAATCTGAATTCCGGTCTCCC
DNA 2: TGGTGGCTACGACGGGATT
B6: UCAAUAU (DNA:RNA)
RNA: B1 RNA with C25U, U27A, A31U
DNA 1: CAATCTGAATTCCGGTCTCCC
DNA 2: TGGTGGCTACGACGGGATT
B7: GUGCGUU (DNA:RNA)
RNA: GGGAGACCGGAAUUCAGAUUGUCCGUGCGUUUUAAAUCCCGUCGUAGCCACCA
DNA 1: CAATCTGAATTCCGGTCTCCC
DNA 2: TGGTGGCTACGACGGGATT
B8: UGGCUGC (DNA:RNA)
RNA: B7 RNA with G25U, U26G, G29U, U30G, U31C
DNA 1: CAATCTGAATTCCGGTCTCCC
DNA 2: TGGTGGCTACGACGGGATT
B9: UGGCGAC (DNA:RNA)
RNA: B7 RNA with G25U, U26G, U30A, U31C
DNA 1: CAATCTGAATTCCGGTCTCCC
DNA 2: TGGTGGCTACGACGGGATT
B10: CUGCAAG (DNA:RNA)
RNA: B7 RNA with G25C, G29A, U30A, U31G
DNA 1: CAATCTGAATTCCGGTCTCCC
DNA 2: TGGTGGCTACGACGGGATT
B11: GCCGUCU (DNA:RNA)
RNA: B1 RNA with C25G, U27C, A28G, A30C, A31U
DNA 1: CAATCTGAATTCCGGTCTCCC
DNA 2: TGGTGGCTACGACGGGATT
B12: GCCCCUU (DNA:RNA)
RNA: B7 RNA with U26C, G27C, G29C
DNA 1: CAATCTGAATTCCGGTCTCCC
DNA 2: TGGTGGCTACGACGGGATT
B13: CGGGCUU (DNA:RNA)
RNA: B7 RNA with G25C, U26G, C28G, G29C
DNA 1: CAATCTGAATTCCGGTCTCCC
DNA 2: TGGTGGCTACGACGGGATT
B14: AAUGGAA (DNA:RNA)
RNA: B1 RNA with C25A, C26A, A28G, U29G
DNA 1: CAATCTGAATTCCGGTCTCCC
DNA 2: TGGTGGCTACGACGGGATT
B15: UUCCGGG (DNA:RNA)
RNA: B7 RNA with G25U, G27C, U30G, U31G
DNA 1: CAATCTGAATTCCGGTCTCCC
DNA 2: TGGTGGCTACGACGGGATT
B16: CCUUCGU (DNA:RNA)
RNA: B1 RNA with A28U, U29C, A30G, A31U
DNA 1: CAATCTGAATTCCGGTCTCCC
DNA 2: TGGTGGCTACGACGGGATT
B17: GUAGGCG (DNA:RNA)
RNA: B7 RNA with G27A, C28G, U30C, U31G
DNA 1: CAATCTGAATTCCGGTCTCCC
DNA 2: TGGTGGCTACGACGGGATT
B18: UCAUGCU (DNA:RNA)
RNA: B7 RNA with G25U, U26C, G27A, C28U, U30C
DNA 1: CAATCTGAATTCCGGTCTCCC
DNA 2: TGGTGGCTACGACGGGATT
B19: CUACGGG (DNA:RNA)
RNA: B7 RNA with G25C, G27A, U30G, U31G
DNA 1: CAATCTGAATTCCGGTCTCCC
DNA 2: TGGTGGCTACGACGGGATT
B20: CCUCAUG (DNA:RNA)
RNA: B1 RNA with A28C, U29A, A30U, A31G
DNA 1: CAATCTGAATTCCGGTCTCCC
DNA 2: TGGTGGCTACGACGGGATT
B21: GUGAUUC (DNA:RNA)
RNA: B7 RNA with C28A, G29U, U31C
DNA 1: CAATCTGAATTCCGGTCTCCC
DNA 2: TGGTGGCTACGACGGGATT
B22: GGGCAGG (DNA:RNA)
RNA: B7 RNA with U26G, G29A, U30G, U31G
DNA 1: CAATCTGAATTCCGGTCTCCC
DNA 2: TGGTGGCTACGACGGGATT
B23: CAGUUAU (DNA:RNA)
RNA: B1 RNA with C26A, U27G, A28U, A31U
DNA 1: CAATCTGAATTCCGGTCTCCC
DNA 2: TGGTGGCTACGACGGGATT
B24: AGCCGGA (DNA:RNA)
RNA: B7 RNA with G25A, U26G, G27C, U30G, U31A
DNA 1: CAATCTGAATTCCGGTCTCCC
DNA 2: TGGTGGCTACGACGGGATT
B25: AGCAGGC (DNA:RNA)
RNA: B1 RNA with C25A, C26G, U27C, U29G, A30G, A31C
DNA 1: CAATCTGAATTCCGGTCTCCC
DNA 2: TGGTGGCTACGACGGGATT
B26: CAGUAUU (DNA:RNA)
RNA: B7 RNA with G25C, U26A, C28U, G29A
DNA 1: CAATCTGAATTCCGGTCTCCC
DNA 2: TGGTGGCTACGACGGGATT
B27: GUGUAGC (DNA:RNA)
RNA: B7 RNA with C28U, G29A, U30G, U31C
DNA 1: CAATCTGAATTCCGGTCTCCC
DNA 2: TGGTGGCTACGACGGGATT
B28: UUUUUGG (DNA:RNA)
RNA: B1 RNA with C25U, C26U, A28U, A30G, A31G
DNA 1: CAATCTGAATTCCGGTCTCCC
DNA 2: TGGTGGCTACGACGGGATT
B29: ACGAAGA (DNA:RNA)
RNA: B1 RNA with C25A, U27G, U29A, A30G
DNA 1: CAATCTGAATTCCGGTCTCCC
DNA 2: TGGTGGCTACGACGGGATT
B30: GCCGUUA (DNA:RNA)
RNA: B1 RNA with C25G, U27C, A28G, A30U
DNA 1: CAATCTGAATTCCGGTCTCCC
DNA 2: TGGTGGCTACGACGGGATT
B31: UCAAUAG (DNA:RNA)
RNA: B1 RNA with C25U, U27A, A31G
DNA 1: CAATCTGAATTCCGGTCTCCC
DNA 2: TGGTGGCTACGACGGGATT

Each binder was assayed against T1, RBFOX1 RRM (assay: EMSA; HiTS-Eq, 1 nM pool, 10 min; buffer printed only for the single-RNA assays: 10 mM Tris pH 7.5, 150 mM NaCl, 3.4 mM EDTA, 0.001% NP-40, 30 C). Conditions: tags: His6 N-terminal (pET28a); label: 5' 32P.
In short: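 These values rest on relative association constants, computed from read-count changes of each RNA species versus the control reaction and normalised to the cognate motif. Reads came from free RNA recovered by 8% native PAGE after purified RbFox RRM (wild type or mutant) at increasing concentrations was equilibrated for 10 min in 50 µL with 1 nM of a 5′-radiolabelled pool with 7 randomized nucleotides and DNA-annealed flanks.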
In the case of B1, the binding signal is reported as 0.00109 KA relative to UGCAUGU.
B2 was tested, and the binding signal was 0.02 KA relative to UGCAUGU.
In the case of B3, the binding signal is reported as 0.000356 KA relative to UGCAUGU.
In the case of B4, the binding signal is reported as 0.0172 KA relative to UGCAUGU.
For B5, the binding signal was 0.00437 KA relative to UGCAUGU.
For B6, the binding signal was 0.000624 KA relative to UGCAUGU.
B7 was tested, and the binding signal was 0.0209 KA relative to UGCAUGU.
In the case of B8, the binding signal is reported as 0.0373 KA relative to UGCAUGU.
With B9 the binding signal was 0.00695 KA relative to UGCAUGU.
With B10 the binding signal was 0.0259 KA relative to UGCAUGU.
For B11, the binding signal was 0.0102 KA relative to UGCAUGU.
For B12, the binding signal was 0.00548 KA relative to UGCAUGU.
B13 was tested, and the binding signal was 0.0317 KA relative to UGCAUGU.
In the case of B14, the binding signal is reported as 0.00264 KA relative to UGCAUGU.
In the case of B15, the binding signal is reported as 0.00531 KA relative to UGCAUGU.
B16 was tested, and the binding signal was 0.0154 KA relative to UGCAUGU.
In the case of B17, the binding signal is reported as 0.0146 KA relative to UGCAUGU.
B18 was tested, and the binding signal was 0.00651 KA relative to UGCAUGU.
With B19 the binding signal was 0.00151 KA relative to UGCAUGU.
B20 was tested, and the binding signal was 0.013 KA relative to UGCAUGU.
In the case of B21, the binding signal is reported as 0.0148 KA relative to UGCAUGU.
B22 was tested, and the binding signal was 0.0181 KA relative to UGCAUGU.
In the case of B23, the binding signal is reported as 0.00331 KA relative to UGCAUGU.
With B24 the binding signal was 0.00377 KA relative to UGCAUGU.
B25 was tested, and the binding signal was 0.0106 KA relative to UGCAUGU.
In the case of B26, the binding signal is reported as 0.00378 KA relative to UGCAUGU.
With B27 the binding signal was 0.0115 KA relative to UGCAUGU.
For B28, the binding signal was 0.016 KA relative to UGCAUGU.
For B29, the binding signal was 0.00796 KA relative to UGCAUGU.
B30 was tested, and the binding signal was 0.0086 KA relative to UGCAUGU.
For B31, the binding signal was 0.0056 KA relative to UGCAUGU.
